This note sets out measurements from patent US20190194291A1 (Hoffmann-La Roche, published 2019).

The target of assay [1] is T1, human 4-1BB (CD137) on cells (human, UniProt Q07011 24-255).
T1 construct: whole, on cells; also called human 4-1BB expressing HeLa reporter cell line
In words: flow cytometry on activated human PBMCs (anti-CD3/anti-CD28), gated on gamma-delta T cells, PE anti-human IgG detection.

In assay [2] the target is T2, human FAP on cells (human, UniProt Q12884 1-760). As to the kind of experiment: cell-based or functional assay.
Assay [3] deals with T1, human 4-1BB (CD137) on cells. In words: cell-based or functional assay.
The target is the same in assay [4]. As to the kind of experiment: flow cytometry on activated human PBMCs (anti-CD3/anti-CD28), gated on CD4+ T cells, PE anti-human IgG detection.
Assay [5] concerns the target T2, human FAP on cells. As to the kind of experiment: flow cytometry on FAP-expressing WM-266-4 cells, PE anti-human IgG detection (FIGS. 9C and D).
The target in assay [6] is T2, human FAP on cells. In words: flow cytometry on FAP-expressing MV-3 cells, PE anti-human IgG detection (FIGS. 9A and B).
The target of assay [7] is T1, human 4-1BB (CD137) on cells. In words: flow cytometry on activated human PBMCs (anti-CD3/anti-CD28), gated on CD8+ T cells, PE anti-human IgG detection.
Assay [8] has the same target. The assay is described as above. This is another data set of the same source.
In assay [9] the target is T2, human FAP on cells. As to the kind of experiment: flow cytometry on FAP-expressing MV-3 cells, PE anti-human IgG detection (FIGS. 9C and D).
The target of assay [10] is T2, human FAP on cells. As to the kind of experiment: flow cytometry on FAP-expressing WM-266-4 cells, PE anti-human IgG detection (FIGS. 9A and B).
Assay [11] deals with T1, human 4-1BB (CD137) on cells. In words: flow cytometry on activated human PBMCs (anti-CD3/anti-CD28), gated on gamma-delta T cells, PE anti-human IgG detection. This is another data set of the same source.
The target is the same in assay [12]. As to the kind of experiment: flow cytometry on activated human PBMCs (anti-CD3/anti-CD28), gated on CD4+ T cells, PE anti-human IgG detection. The source holds these as a separate data set.

B1: monovalent FAP-targeted 4-1BB ligand (71-248) trimer-containing Fc (kih) fusion antigen binding molecule (Construct 2.4) (Fc fusion)
chain 1: REGPELSPDDPAGLLDLRQGMFAQLVAQNVLLIDGPLSWYSDPGLAGVSLTGGLSYKEDTKELVVAKAGVYYVFFQLELRRVVAGEGSGSVSLALHLQPLRSAAGAAALALTVDLPPASSEARNSAFGFQGRLLHLSAGQRLGVHLHTEARARHAWQLTQGATVLGLFRVTPEIPAGLGGGGSGGGGSREGPELSPDDPAGLLDLRQGMFAQLVAQNVLLIDGPLSWYSDPGLAGVSLTGGLSYKEDTKELVVAKAGVYYVFFQLELRRVVAGEGSGSVSLALHLQPLRSAAGAAALALTVDLPPASSEARNSAFGFQGRLLHLSAGQRLGVHLHTEARARHAWQLTQGATVLGLFRVTPEIPAGLGGGGSGGGGSRTVAAPSVFIFPPSDRKLKSGTASVVCLLNNFYPREAKVQWKVDNALQSGNSQESVTEQDSKDSTYSLSSTLTLSKADYEKHKVYACEVTHQGLSSPVTKSFNRGE[human IgG1 Fc with changes omitted here]
chain 2: REGPELSPDDPAGLLDLRQGMFAQLVAQNVLLIDGPLSWYSDPGLAGVSLTGGLSYKEDTKELVVAKAGVYYVFFQLELRRVVAGEGSGSVSLALHLQPLRSAAGAAALALTVDLPPASSEARNSAFGFQGRLLHLSAGQRLGVHLHTEARARHAWQLTQGATVLGLFRVTPEIPAGLGGGGSGGGGSASTKGPSVFPLAPSSKSTSGGTAALGCLVEDYFPEPVTVSWNSGALTSGVHTFPAVLQSSGLYSLSSVVTVPSSSLGTQTYICNVNHKPSNTKVDEKVEPKSC
heavy: EVQLLESGGGLVQPGGSLRLSCAASGFTFSSYAMSWVRQAPGKGLEWVSAIIGSGASTYYADSVKGRFTISRDNSKNTLYLQMNSLRAEDTAVYYCAKGWFGGFNYWGQGTLVTVSSASTKGPSVFPLAPSSKSTSGGTAALGCLVKDYFPEPVTVSWNSGALTSGVHTFPAVLQSSGLYSLSSVVTVPSSSLGTQTYICNVNHKPSNTKVDKKVEPKSCDKTHTCPPCPAPEAAGGPSVFLFPPKPKDTLMISRTPEVTCVVVDVSHEDPEVKFNWYVDGVEVHNAKTKPREEQYNSTYRVVSVLTVLHQDWLNGKEYKCKVSNKALGAPIEKTISKAKGQPREPQVCTLPPSRDELTKNQVSLSCAVKGFYPSDIAVEWESNGQPENNYKTTPPVLDSDGSFFLVSKLTVDKSRWQQGNVFSCSVMHEALHNHYTQKSLSLSPGK
light: EIVLTQSPGTLSLSPGERATLSCRASQSVTSSYLAWYQQKPGQAPRLLINVGSRRATGIPDRFSGSGSGTDFTLTISRLEPEDFAVYYCQQGIMLPPTFGQGTKVEIKRTVAAPSVFIFPPSDEQLKSGTASVVCLLNNFYPREAKVQWKVDNALQSGNSQESVTEQDSKDSTYSLSSTLTLSKADYEKHKVYACEVTHQGLSSPVTKSFNRGEC
notes: FAP-targeted variant of Control D; 4-1BBL moieties fused N-terminally to crossed CL/CH1 with charged residues; also called positive control construct 2.4
Turning to B1, the EC50 in assay [1] was 0.64 nM; in assay [4] it was 0.1 nM; in the assay with human FAP on cells [5] it was 1.18 nM; with human FAP on cells [6] it was 2.16 nM; in assay [7] it was 1.13 nM; in assay [8] it was 0.23 nM. The half-maximal effective concentration (EC50) with human FAP on cells [9] amounted to 2.21 nM; with human FAP on cells [10], 3.43 nM; in assay [11], 0.11 nM; in assay [12], 0.41 nM. Further, the “EC50 [nM] of CD25-upregulation on CD8+ T cells” value with human FAP on cells [2] worked out at 0.03 nM. In addition, the “EC50 [nM] of CD137 (4-1BB)-upregulating on CD8+ T cells” value with human FAP on cells [2] is 0.08 nM. The “EC50 [nM] of NFkB-activation-induced Luciferase activity-curves, on 3T3-huFAP” value in assay [3] came to 0.06 nM. Moreover, in assay [3], the “EC50 [nM] of NFkB-activation-induced Luciferase activity-curves, on MV-3” value turned out to be 0.15 nM.
